Among the data in the antibiotic and cytotoxicity screens of Wong et al. (2023) are cytotoxicity call and growth inhibition call values, retold here.

Some of the results follow.

The first test deals with HepG2. Put plainly: cytotoxicity call (relative viability < 0.9). The note with it: 10 µM.
Take `Cc1cc(Cl)cc2sc(N(Cc3ccccn3)C(=O)c3ccc(S(=O)(=O)N4CCCC4)cc3)nc12`: the cytotoxicity call was “inactive”.

In the case of `C[C@@H]1CN([C@H](C)CO)C(=O)c2cccc(NC(=O)Nc3cccc4ccccc34)c2O[C@H]1CN(C)S(=O)(=O)c1ccc(F)cc1`, the cytotoxicity call was “inactive”. Still for that read-out and setting: for `C[C@H]1CCCCO[C@H](CN(C)CC2CC2)[C@@H](C)CN([C@@H](C)CO)C(=O)c2cc(NC(=O)c3ccccc3)ccc2O1` the value was “inactive”; for `C[C@H](CO)N1C[C@H](C)[C@H](CN(C)C(=O)Nc2cccc3ccccc23)OCCCC[C@H](C)Oc2ccc(NC(=O)c3ccncc3)cc2C1=O`, “inactive”. Still for that read-out and setting: to `C[C@H]1CCCCO[C@H](CN(C)Cc2ccc(C(F)(F)F)cc2)[C@@H](C)CN([C@@H](C)CO)C(=O)c2cc(NC(=O)C3CCCCC3)ccc2O1` belongs “active”. `C[C@@H]1CN([C@@H](C)CO)C(=O)Cc2cc(NC(=O)Cn3cnnn3)ccc2O[C@H]1CN(C)Cc1ccc(Cl)c(Cl)c1`: the cytotoxicity call was “inactive”.

In the case of `C[C@@H]1CN([C@H](C)CO)C(=O)CCCn2cc(nn2)CO[C@H]1CN(C)C(=O)CCCN(C)C`, the cytotoxicity call is “inactive”.

Regarding `COc1ccc(NC(=O)N(C)C[C@H]2Oc3c(NS(=O)(=O)c4cn(C)cn4)cccc3C(=O)N([C@H](C)CO)C[C@H]2C)cc1`, the cytotoxicity call is “inactive”. Take `C[C@H](CO)N1C[C@H](C)[C@H](CN(C)S(C)(=O)=O)Oc2ncc(-c3cccc(C(F)(F)F)c3)cc2C1=O`: the cytotoxicity call was “inactive”. Same read-out and setting: to `CC(C)[C@H]1NC(=O)CNC1=O` belongs “inactive”; to `COCC(=O)N1CC[C@]2(CC1)CN([C@H](CO)c1[nH]c3cc(ccc3c12)OC)C(=O)Nc1ccccc1F`, “inactive”; to `CC(C)NC(=O)N(C)C[C@@H]1Oc2c(NS(=O)(=O)c3ccc(F)cc3)cccc2C(=O)N([C@H](C)CO)C[C@H]1C`, “inactive”. Same read-out and setting: to `COc1cnc(-n2cnc(C)n2)c2c1c(C(=O)C(=O)N1CCN(C(=O)c3ccccc3)CC1)cn2COP(=O)(O)O` belongs “inactive”; to `COc1ccc2c3c(n(c2c1)C)[C@H](CO)N(Cc1ccccc1Cl)C[C@]13CCN(CC1)C(=O)CC1CC1`, “inactive”. Same read-out and setting: for `C[C@@H]1CCCCO[C@@H](CN(C)C(=O)c2ccccc2)[C@H](C)CN([C@H](C)CO)C(=O)c2cc(NS(=O)(=O)c3cccs3)ccc2O1` the value was “inactive”; for `C[C@H](CO)N1C[C@H](C)[C@H](CN(C)C(=O)C2CC2)OCc2cn(nn2)CCCC1=O`, “inactive”; for `C[C@](N)(Cc1ccc(O)cc1)C(=O)O`, “inactive”.

In the case of `Cc1ccc(S(=O)(=O)Nc2ccc3c(c2)C(=O)N([C@H](C)CO)C[C@H](C)[C@H](CN(C)S(=O)(=O)c2ccc(F)cc2)OCCCC[C@@H](C)O3)cc1`, the cytotoxicity call was “inactive”. Same read-out and setting: to `Cc1noc(C)c1S(=O)(=O)Nc1ccc2c(c1)C(=O)N([C@H](C)CO)C[C@@H](C)[C@@H](CN(C)C(=O)Nc1ccc(F)cc1)OCCCC[C@@H](C)O2` belongs “inactive”. Same read-out and setting: for `C[C@@H]1CN([C@H](C)CO)C(=O)c2cc(NS(=O)(=O)c3ccc(F)cc3)ccc2O[C@@H](C)CCCCO[C@@H]1CN(C)S(=O)(=O)c1cn(C)cn1` the value was “inactive”; for `CC(C(=O)O)c1ccc2c(c1)Cc1cccnc1O2` (stereo unspecified), “inactive”.

The test system of the next test is S. aureus RN4220. Nature of the test: growth inhibition call (relative growth <= 0.2). The note with it: 50 µM.
`C[C@@H]1CN([C@@H](C)CO)C(=O)c2cc(C#CCN(C)C)cnc2O[C@@H]1CN(C)C(=O)c1ccc2c(c1)OCO2`: the growth inhibition call was “inactive”.

Regarding `Cc1ccc(S(=O)(=O)Nc2cccc3c2O[C@@H](CN(C)Cc2ccc(C(F)(F)F)cc2)[C@H](C)CN([C@H](C)CO)C3=O)cc1`, the growth inhibition call is “inactive”. Same read-out and setting: for `C[C@@H]1CCCCO[C@@H](CN(C)S(C)(=O)=O)[C@@H](C)CN([C@H](C)CO)C(=O)c2cc(N(C)C)ccc2O1` the value was “inactive”; for `C[C@@H]1CN([C@@H](C)CO)C(=O)c2cccc(NC(=O)Nc3ccc(C(F)(F)F)cc3)c2O[C@@H]1CN(C)C(=O)Nc1ccc(F)cc1`, “inactive”; for `C[C@H](CO)N1C[C@H](C)[C@@H](CN(C)C(=O)Nc2cccc3ccccc23)Oc2ccc(NC(=O)Nc3ccc(F)cc3)cc2CC1=O`, “inactive”. On the same count and under the same terms, for `CCCCCCCCCCCCCCCCOc1nc2ccc(C)cc2c(=O)o1` the value was “inactive”. Same read-out and setting: for `C[C@@H]1CN([C@@H](C)CO)C(=O)c2cccc(NC(=O)Nc3ccc(F)cc3)c2O[C@H]1CN(C)Cc1ccc(-c2ccccc2)cc1` the value was “inactive”; for `C[C@@H]1CN([C@H](C)CO)S(=O)(=O)c2ccc(C#CC(C)(C)O)cc2O[C@@H]1CN(C)Cc1ccc(F)cc1`, “inactive”; for `O=C(O)CCSC[C@@H]1O[C@H]2O[C@@H]3[C@@H](O)[C@H](O)[C@H](O[C@@H]4[C@@H](O)[C@H](O)[C@H](O[C@@H]5[C@@H](O)[C@H](O)[C@H](O[C@@H]6[C@@H](O)[C@H](O)[C@H](O[C@@H]7[C@@H](O)[C@H](O)[C@H](O[C@@H]8[C@@H](O)[C@H](O)[C@H](O[C@@H]9[C@@H](O)[C@H](O)[C@H](O[C@@H]1[C@@H](O)[C@@H]2O)O[C@H]9CSCCC(=O)O)O[C@H]8CSCCC(=O)O)O[C@H]7CSCCC(=O)O)O[C@H]6CSCCC(=O)O)O[C@H]5CSCCC(=O)O)O[C@H]4CSCCC(=O)O)O[C@H]3CSCCC(=O)O`, “inactive”. With `C=CC[C@@H](CC(=O)N[C@@H](CO)Cc1ccccc1)C(=O)NCCOC(=O)[C@@H](CC=C)CC(=O)OC(C)(C)C`, the growth inhibition call is “inactive”.

As to `CCCNC(=O)N1C[C@@H](O)COC[C@H]2O[C@@H](CC(=O)N3CCN(C)CC3)CC[C@@H]21`, the growth inhibition call was “inactive”. Same read-out and setting: to `Cc1ccc(OC(=O)N(C)C[C@@H]2OCc3ccccc3-c3ccccc3C(=O)N([C@H](C)CO)C[C@H]2C)cc1` belongs “inactive”. Same read-out and setting: to `C[C@@H]1CN([C@@H](C)CO)C(=O)c2cc(NS(=O)(=O)c3ccccc3)ccc2O[C@@H](C)CCCCO[C@H]1CN(C)C(=O)c1ccccc1` belongs “inactive”. Still for that read-out and setting: for `C[C@@H]1CN([C@H](C)CO)C(=O)c2cc(NC(=O)C3CC3)ccc2O[C@@H]1CN(C)S(=O)(=O)c1ccccc1` the value was “inactive”; for `C[C@@H]1CCCCO[C@H](CN(C)Cc2ccc3c(c2)OCO3)[C@@H](C)CN([C@@H](C)CO)C(=O)c2cc(NC(=O)c3ccccc3)ccc2O1`, “inactive”. On to `C[C@@H]1CN([C@@H](C)CO)C(=O)c2cc(NS(=O)(=O)c3ccccc3)ccc2O[C@@H]1CN(C)Cc1ccc(Cl)c(Cl)c1`, for which the growth inhibition call is “inactive”. Same read-out and setting: for `COCC#Cc1ccc2c(c1)O[C@@H](CN(C)S(C)(=O)=O)[C@@H](C)CN([C@H](C)CO)S2(=O)=O` the value was “inactive”; for `C[C@@H]1CN([C@H](C)CO)C(=O)c2cc(NC(=O)Nc3ccc(C(F)(F)F)cc3)ccc2O[C@@H]1CN(C)Cc1ccc(C(F)(F)F)cc1`, “inactive”. Same read-out and setting: to `C[C@H](CO)N1C[C@H](C)[C@H](CN(C)S(=O)(=O)c2ccc(Cl)cc2)OCCCC[C@H](C)Oc2ccc(NC(=O)NC3CCCCC3)cc2C1=O` belongs “inactive”. Turning to `Cc1cc(Cl)cc2sc(N(Cc3ccccn3)C(=O)c3ccc(S(=O)(=O)N4CCCC4)cc3)nc12`, the growth inhibition call is “inactive”. As for `C[C@@H]1CN([C@H](C)CO)C(=O)c2cccc(NC(=O)Nc3cccc4ccccc34)c2O[C@H]1CN(C)S(=O)(=O)c1ccc(F)cc1`, the growth inhibition call was “inactive”. Still for that read-out and setting: for `C[C@H]1CCCCO[C@H](CN(C)CC2CC2)[C@@H](C)CN([C@@H](C)CO)C(=O)c2cc(NC(=O)c3ccccc3)ccc2O1` the value was “inactive”. Still for that read-out and setting: to `C[C@H](CO)N1C[C@H](C)[C@H](CN(C)C(=O)Nc2cccc3ccccc23)OCCCC[C@H](C)Oc2ccc(NC(=O)c3ccncc3)cc2C1=O` belongs “inactive”; to `C[C@H]1CCCCO[C@H](CN(C)Cc2ccc(C(F)(F)F)cc2)[C@@H](C)CN([C@@H](C)CO)C(=O)c2cc(NC(=O)C3CCCCC3)ccc2O1`, “inactive”; to `C[C@@H]1CN([C@@H](C)CO)C(=O)Cc2cc(NC(=O)Cn3cnnn3)ccc2O[C@H]1CN(C)Cc1ccc(Cl)c(Cl)c1`, “inactive”. Same read-out and setting: to `C[C@@H]1CN([C@H](C)CO)C(=O)CCCn2cc(nn2)CO[C@H]1CN(C)C(=O)CCCN(C)C` belongs “inactive”. As for `COc1ccc(NC(=O)N(C)C[C@H]2Oc3c(NS(=O)(=O)c4cn(C)cn4)cccc3C(=O)N([C@H](C)CO)C[C@H]2C)cc1`, the growth inhibition call was “inactive”. Regarding `C[C@H](CO)N1C[C@H](C)[C@H](CN(C)S(C)(=O)=O)Oc2ncc(-c3cccc(C(F)(F)F)c3)cc2C1=O`, the growth inhibition call is “inactive”. For `CC(C)[C@H]1NC(=O)CNC1=O`, the growth inhibition call is “inactive”. On the same count and under the same terms, for `COCC(=O)N1CC[C@]2(CC1)CN([C@H](CO)c1[nH]c3cc(ccc3c12)OC)C(=O)Nc1ccccc1F` the value was “inactive”. Same read-out and setting: for `CC(C)NC(=O)N(C)C[C@@H]1Oc2c(NS(=O)(=O)c3ccc(F)cc3)cccc2C(=O)N([C@H](C)CO)C[C@H]1C` the value was “inactive”; for `COc1cnc(-n2cnc(C)n2)c2c1c(C(=O)C(=O)N1CCN(C(=O)c3ccccc3)CC1)cn2COP(=O)(O)O`, “inactive”. Same read-out and setting: to `COc1ccc2c3c(n(c2c1)C)[C@H](CO)N(Cc1ccccc1Cl)C[C@]13CCN(CC1)C(=O)CC1CC1` belongs “inactive”; to `C[C@@H]1CCCCO[C@@H](CN(C)C(=O)c2ccccc2)[C@H](C)CN([C@H](C)CO)C(=O)c2cc(NS(=O)(=O)c3cccs3)ccc2O1`, “inactive”; to `C[C@H](CO)N1C[C@H](C)[C@H](CN(C)C(=O)C2CC2)OCc2cn(nn2)CCCC1=O`, “inactive”. With `C[C@](N)(Cc1ccc(O)cc1)C(=O)O`, the growth inhibition call is “inactive”.

On to `Cc1ccc(S(=O)(=O)Nc2ccc3c(c2)C(=O)N([C@H](C)CO)C[C@H](C)[C@H](CN(C)S(=O)(=O)c2ccc(F)cc2)OCCCC[C@@H](C)O3)cc1`, for which the growth inhibition call was “inactive”. The same measure, in the same setting: to `Cc1noc(C)c1S(=O)(=O)Nc1ccc2c(c1)C(=O)N([C@H](C)CO)C[C@@H](C)[C@@H](CN(C)C(=O)Nc1ccc(F)cc1)OCCCC[C@@H](C)O2` belongs “inactive”; to `C[C@@H]1CN([C@H](C)CO)C(=O)c2cc(NS(=O)(=O)c3ccc(F)cc3)ccc2O[C@@H](C)CCCCO[C@@H]1CN(C)S(=O)(=O)c1cn(C)cn1`, “inactive”; to `CC(C(=O)O)c1ccc2c(c1)Cc1cccnc1O2` (stereo unspecified), “inactive”.
